From the BET-seq Pho4 binding data (Le et al. 2018) come the findings set out here.

This is one part of the list. Values were computed here from the reads of four pooled replicates and scatter widely.

The target of this assay is T1, Pho4 (S. cerevisiae) (UniProt P07270).
T1 sequence: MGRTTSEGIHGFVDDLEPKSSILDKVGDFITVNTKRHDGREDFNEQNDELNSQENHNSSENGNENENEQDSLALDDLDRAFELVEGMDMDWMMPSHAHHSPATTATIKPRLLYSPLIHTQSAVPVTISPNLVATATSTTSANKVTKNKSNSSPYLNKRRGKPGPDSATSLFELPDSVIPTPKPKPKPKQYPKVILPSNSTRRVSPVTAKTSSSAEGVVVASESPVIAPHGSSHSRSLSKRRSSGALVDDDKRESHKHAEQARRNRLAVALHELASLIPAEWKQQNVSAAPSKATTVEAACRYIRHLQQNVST
Kind of assay: relative binding free energy (BET-seq); higher = weaker binding. The settings on record: reference: library average.
With TGTTTCACGTGGAAGC, the “relative binding free energy” value stood at 0.33 kcal/mol.
Then TGAGTCACGTGAGTGC, with 0.28 kcal/mol; and TGATGCACGTGTTAGT, with 0.03 kcal/mol; and TGTGTCACGTGGTATG, with 0.02 kcal/mol.
Next, TCATTCACGTGCGTTG: 0.14 kcal/mol.
On to AGATTCACGTGGTAAG, for which the “relative binding free energy” value was found to be 0.27 kcal/mol.
In the case of GTTTGCACGTGACGTA, the “relative binding free energy” value stood at 0.07 kcal/mol.
Next, TCGATCACGTGTTTGA: 0.05 kcal/mol.
Turning to GTCTTCACGTGTTGCT, the “relative binding free energy” value amounted to 0.18 kcal/mol.
Then GTTCGCACGTGTAAGG, with 0.32 kcal/mol; and GTAGTCACGTGTTCGG, with 0.03 kcal/mol.
With TTAAGCACGTGGCTAA, the “relative binding free energy” value is 0.03 kcal/mol.
Then ACGTGCACGTGTGTTG, with -0.07 kcal/mol; and ACGTTCACGTGTCTGG, with 0.29 kcal/mol.
Then GAGATCACGTGTTGTA, with 0.21 kcal/mol; and GTGGACACGTGGGTTC, with -0.04 kcal/mol.
Next, TGATACACGTGTGAGA: 0.16 kcal/mol.
Consider GCTTACACGTGGGTAA, for which the “relative binding free energy” value amounted to 0.14 kcal/mol.
With GGAGCCACGTGGGGAT, the “relative binding free energy” value is -0.2 kcal/mol.
GATGTCACGTGTAGGA: the “relative binding free energy” value amounted to 0.2 kcal/mol.
Next, GTGAACACGTGGGCGT: -0.06 kcal/mol; TATGTCACGTGTGGGG: 0.17 kcal/mol; AGAGTCACGTGGTTTG: 0.21 kcal/mol.
Next, GGCGTCACGTGGGGTG: -0.01 kcal/mol.
Next, TTTCTCACGTGAGCGG: 0.44 kcal/mol; GGTAACACGTGTATAG: 0.12 kcal/mol.
As to TTGTTCACGTGTATAA, the “relative binding free energy” value was found to be 0.33 kcal/mol.
Then AGTTCCACGTGGGGGG, with -0.08 kcal/mol; and TTCGGCACGTGATTGC, with 0.22 kcal/mol; and ATCTTCACGTGTTAAG, with 0.15 kcal/mol.
Next, TGCTTCACGTGTTAGT: 0.25 kcal/mol; GTAAACACGTGTGGTA: 0.01 kcal/mol.
Then GGGTGCACGTGTTGAC, with -0.12 kcal/mol; and CGCAGCACGTGAGTGG, with 0.07 kcal/mol.
As for TTATCCACGTGGTGTT, the “relative binding free energy” value was -0.06 kcal/mol.
For TAGACCACGTGTGGTG, the “relative binding free energy” value was -0.12 kcal/mol.
Next, ATGGTCACGTGTATTT: 0.2 kcal/mol; CGTGGCACGTGTAAGT: -0.03 kcal/mol.
GTGGTCACGTGTGGCC: the “relative binding free energy” value was 0.29 kcal/mol.
Then TTCATCACGTGCGTGT, with 0.15 kcal/mol; and GGTGGCACGTGTTGAC, with 0.07 kcal/mol.
Then TTTATCACGTGGGCAT, with -0.13 kcal/mol; and GGTGGCACGTGCTGCT, with -0.15 kcal/mol.
Next, TTTCGCACGTGATGTA: 0.08 kcal/mol.
As for TCGGTCACGTGTCTTT, the “relative binding free energy” value was 0.19 kcal/mol.
Then GGATGCACGTGGCCGG, with 0.01 kcal/mol.
Regarding TATGGCACGTGGTTAG, the “relative binding free energy” value is -0.09 kcal/mol.
Then CTTCGCACGTGTGGGT, with 0.04 kcal/mol; and TTGTTCACGTGCGGGA, with 0.34 kcal/mol; and GGCGTCACGTGAGGGT, with 0.4 kcal/mol.
Next, TGTGACACGTGTTATT: -0.01 kcal/mol; ATACGCACGTGTTGTG: -0.14 kcal/mol.
On to TTTTACACGTGAGCAG, for which the “relative binding free energy” value turned out to be 0.22 kcal/mol.
Turning to TTAGCCACGTGGGTAT, the “relative binding free energy” value was -0.25 kcal/mol.
Then TAGAGCACGTGTAATG, with -0.15 kcal/mol.
Next, TAATTCACGTGTATCT: 0.26 kcal/mol; TTGTGCACGTGTAAGA: 0.05 kcal/mol.
Then TTTGCCACGTGTGTCG, with -0.1 kcal/mol.
On to ATTAACACGTGTGTGA, for which the “relative binding free energy” value turned out to be 0.2 kcal/mol.
Then ATAAGCACGTGTGGTT, with -0.06 kcal/mol.
Next, GCGGACACGTGTAGGT: 0.09 kcal/mol.
With GAGTGCACGTGTGCTG, the “relative binding free energy” value stood at 0 kcal/mol.
Then GTGGTCACGTGGAACT, with 0.18 kcal/mol.
Next, TTAGACACGTGGGATC: -0.03 kcal/mol.
As for GGAGCCACGTGGGATG, the “relative binding free energy” value was -0.08 kcal/mol.
With ATTAGCACGTGTGGTG, the “relative binding free energy” value was 0.05 kcal/mol.
Next, TGTGTCACGTGCAATT: 0.03 kcal/mol; GGTTCCACGTGTTGTC: 0.16 kcal/mol; TTTTACACGTGCGTTT: -0.02 kcal/mol.
Take TGTGTCACGTGCAAGC: the “relative binding free energy” value was found to be 0.2 kcal/mol.
Then TGACGCACGTGTTGTA, with -0.19 kcal/mol; and TGGTACACGTGGGTGG, with -0.04 kcal/mol; and TGTTACACGTGTGTGA, with 0.15 kcal/mol.
Then TGGAGCACGTGGTTCT, with -0.04 kcal/mol.
Next, GTGGTCACGTGGTCAA: 0.05 kcal/mol; TATTGCACGTGTTGTT: -0.03 kcal/mol; TGTGGCACGTGAATCT: 0.26 kcal/mol.
Turning to TAAGTCACGTGTATTA, the “relative binding free energy” value was found to be 0.22 kcal/mol.
Next, TTAGTCACGTGGGGAA: -0.02 kcal/mol; AAGGCCACGTGGGTTA: -0.32 kcal/mol.
Next, AGGTGCACGTGCCAGG: -0.14 kcal/mol; TGTTTCACGTGAGTTC: 0.3 kcal/mol.
As for GGGTACACGTGTCTAT, the “relative binding free energy” value is 0.1 kcal/mol.
For AGATTCACGTGGATTG, the “relative binding free energy” value amounted to 0.24 kcal/mol.
Then GCGCGCACGTGGTGGT, with -0.29 kcal/mol.
GGGTTCACGTGACGGG: the “relative binding free energy” value amounted to 0.4 kcal/mol.
Then TTCGTCACGTGATTTA, with 0.16 kcal/mol.
Then CGGGTCACGTGTCCGT, with 0.24 kcal/mol.
As for AGTGGCACGTGTCGTT, the “relative binding free energy” value is -0.16 kcal/mol.
Next, AATGGCACGTGAGGTG: 0.12 kcal/mol; ACGGGCACGTGGTAAA: 0.02 kcal/mol; ATATTCACGTGTATTC: 0.18 kcal/mol.
Next, TTACACACGTGGTGGC: 0.07 kcal/mol; GGATTCACGTGTCGTT: 0.37 kcal/mol.
Next, GATGTCACGTGTGTGT: 0.31 kcal/mol.
Regarding CTGAGCACGTGGTTGG, the “relative binding free energy” value was -0.12 kcal/mol.
Next, ATATGCACGTGAAGGG: 0.18 kcal/mol; TTTTACACGTGTTGGG: 0.16 kcal/mol.
Then TTGGCCACGTGATTAG, with 0.09 kcal/mol; and AAGGGCACGTGTTTCT, with 0 kcal/mol.
Next, GTACACACGTGTGGGG: 0.11 kcal/mol; GTGGCCACGTGGTTAA: -0.1 kcal/mol.
Turning to AAGGTCACGTGGACGT, the “relative binding free energy” value was -0.04 kcal/mol.
Next, ATGACCACGTGGGCGG: -0.16 kcal/mol; CAGTTCACGTGGTAAG: 0.3 kcal/mol; CTGTTCACGTGCTGAT: 0.29 kcal/mol.
Regarding CTTATCACGTGCGTGT, the “relative binding free energy” value was found to be 0.05 kcal/mol.
Regarding TTTAGCACGTGAGACG, the “relative binding free energy” value came to 0.19 kcal/mol.
Then GTCGGCACGTGGCAGG, with -0.16 kcal/mol; and GTATTCACGTGGAAAT, with 0.4 kcal/mol; and GAGTACACGTGGGTGC, with 0 kcal/mol.
In the case of AGATCCACGTGAGGGT, the “relative binding free energy” value turned out to be 0.11 kcal/mol.
Turning to TTTTGCACGTGCTGCT, the “relative binding free energy” value is -0.27 kcal/mol.
Then TATGACACGTGTGCGG, with 0.04 kcal/mol.
Next, AGGATCACGTGGCTTA: 0.14 kcal/mol.
